Experimental data published in PubChem BioAssay AID1030 (National Center for Advancing Translational Sciences (NCATS), 2008).
Out of some 220,000 compounds screened, about 16,000 (7.3%) were called active. The inconclusive results got no clear call from the source; some entries with a clear call stand among them for comparison. The call rests on the fitted dose curve; in most records, active means well fitted inhibition curve with a large enough effect (not every such curve was filed as active); inconclusive means small, poorly fitted or top-dose-only effect, or another doubt; inactive means no such curve, though single readings can be large or run the other way. Potencies of inconclusive entries are left out as doubtful fits.

The compounds below were run against Aldehyde dehydrogenase 1A1 (Homo sapiens) (UniProt P00352) (assay: qHTS Assay for Inhibitors of Aldehyde Dehydrogenase 1 (ALDH1A1)). Details: Purified ALDH1A1, NADH fluorescence, propionaldehyde substrate; series mostly up to 75.3 µM; activity, negative = inhibition: at the top concentration.
UniProt P00352, sequence (P00352 whole entry, looked up): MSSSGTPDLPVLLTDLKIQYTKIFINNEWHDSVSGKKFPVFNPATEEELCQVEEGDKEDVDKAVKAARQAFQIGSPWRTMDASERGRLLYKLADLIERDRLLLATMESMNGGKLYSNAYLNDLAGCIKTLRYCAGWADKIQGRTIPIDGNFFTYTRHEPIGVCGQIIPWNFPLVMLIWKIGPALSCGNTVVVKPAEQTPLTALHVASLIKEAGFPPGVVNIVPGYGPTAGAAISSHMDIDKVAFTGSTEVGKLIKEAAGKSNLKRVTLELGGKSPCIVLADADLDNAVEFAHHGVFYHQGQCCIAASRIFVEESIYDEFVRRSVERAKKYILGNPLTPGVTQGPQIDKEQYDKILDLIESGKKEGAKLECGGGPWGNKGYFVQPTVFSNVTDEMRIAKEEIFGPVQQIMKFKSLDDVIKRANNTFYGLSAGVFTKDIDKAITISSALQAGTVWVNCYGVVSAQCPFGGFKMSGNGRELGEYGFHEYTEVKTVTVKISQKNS
Potency means the concentration at half of the fitted maximal effect; tags describe the fitted curve by direction and shape.
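Wherever activity, negative = inhibition is given: plate controls were no enzyme wells and a reference inhibitor.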

SMILES | Potency | activity, negative = inhibition
CCn1cc(C(=O)OCC(=O)c2cc(C)n(-c3ccccc3F)c2C)c(=O)c2ccc(C)nc21 | inconclusive [inhibitor, single point] | 
S=c1[nH]nc(Cn2cnc3ccccc32)n1-c1ccccc1 | inconclusive [inhibitor, single point] | 
COc1ccc(N2C(=O)CS/C2=N\C(=S)Nc2ccccc2)cc1 | inconclusive [inhibitor, single point] | 
Cc1nccn1CC(O)Cn1c2ccccc2c2ccccc21 (configuration not stated) | inconclusive [inhibitor, single point] | 
OC1(c2ccc(Br)cc2)CCNCC1 |  | inactive: 7.16%
CC1CCCN(C(=O)Nc2ccc(Br)cc2Cl)C1 (configuration not stated) |  | inactive: 2.91%
O=C(CC1(O)C(=O)N(CCc2ccccc2)c2ccccc21)c1ccco1 (configuration not stated) | inconclusive [inhibitor, full curve] | 
CC1CN(CC(O)COc2ccccc2C(C)(C)C)CC(C)O1 (configuration not stated) | inconclusive [inhibitor, single point] | 
CCCn1c(=O)c2c(c3ccccc31)OC(C)C(=O)N2 (configuration not stated) |  | inactive: 6.17%
CC(C)(C)c1csc(N/N=C/c2cccnc2)n1 | active: 25.1 µM | 
COC(=O)c1sc(N2C(=O)C(=O)/C(=C(/O)c3ccccc3)C2c2ccco2)nc1C (configuration not stated) |  | inactive: -2.05%
Cn1c(=O)c2c(nc(CN3CCCCC3)n2CCc2ccccc2)n(C)c1=O | inconclusive [inhibitor, partial curve] | 
c1csc(C2Nc3cccc4cccc(c34)N2)c1 | inconclusive [inhibitor, single point] | 
CN(C)/C=C/c1c([N+](=O)[O-])c2ccc(O)cc2n1-c1ccccc1 |  | inactive: -15.4%
Cc1ccn2c(/C=N/OCc3cccc(F)c3)c(-c3ccc(Cl)cc3)nc2c1 | inconclusive [inhibitor, partial curve] | 
c1cc(Nc2ncnc3sc4c(c23)CCC4)ccn1 | inconclusive [inhibitor, partial curve] | 
CC1CCN(c2c(NCC3CCC(C(=O)NCc4ccccc4Cl)CC3)c(=O)c2=O)CC1 (configuration not stated) |  | inactive: 0.52%
C/C(=N\NC(=O)c1cc2c(s1)CCC(C)C2)c1cccnc1 (configuration not stated) | inconclusive [inhibitor, single point] | 
CCCC(=O)Nc1nn(C)c2nc3c(C)cccc3cc12 | inconclusive [inhibitor, single point] | 
COC(=O)[C@@]1(Cc2ccc(OC)cc2)[C@H]2c3cc(C(=O)N4CCCC4)n(Cc4ccsc4Br)c3C[C@H]2CN1C(=O)c1ccccc1 |  | inactive: -1.7%
COc1ccc2[nH]cc(CCNc3nc(-c4cccc(C#N)c4)nc4ccccc34)c2c1 | inconclusive [inhibitor, single point] | 
CN(C)CCCNCCCCNC(=O)/C=N/O |  | inactive: -3.04%
CC(c1nccs1)N(C)C(=O)CCc1nnc(-c2ccc(-c3ccccc3)cc2)o1 (configuration not stated) | inconclusive [inhibitor, single point] | 
O=C(CNC(=O)c1cccc(Br)c1)N/N=C/c1ccc[nH]1 |  | inactive: -4.68%
NC1(C(=O)NC2(C(=O)O)CCCC2)CCCC1 |  | inactive: 10.9% [at 13.5 µM]
O=C(Cn1cnc2c(nnn2Cc2ccc(F)cc2)c1=O)OCc1ccccc1 | inconclusive [inhibitor, single point] | 

SMILES | Potency | activity, negative = inhibition
O=C(Cn1c(=O)oc2cc(S(=O)(=O)N3CCCC3)ccc21)N1CCCC1 | inconclusive [inhibitor, partial curve] | 
Cc1[nH]c2ccccc2c1C(c1ccccn1)N1CCCC1 (configuration not stated) |  | inactive: -10.6%
CC(=O)Nc1sc(N)nc1-c1ccccc1 | inconclusive [inhibitor, single point] | 
O=S(=O)(NC1CCCCCC1)c1cccc2cccnc12 | active: 14.1 µM | 
CC(=O)c1cccc(NC(=O)c2nccnc2C(=O)O)c1 |  | inactive: -10%
CCSc1nc(N)c2c3c(sc2n1)CN(C)CC3 | inconclusive [inhibitor, single point] | 
CCCc1cc(=O)[nH]c(SCC(=O)Nc2sc3c(c2C#N)CCC(C)C3)n1 (configuration not stated) | active: 22.4 µM | 
COc1cccc(N=Nc2c(N)[nH]n3c(=O)cc(-c4ccccc4)nc23)c1 |  | inactive: 3.84%
CN1CCN(CC2(O)CCN(S(=O)(=O)c3ccc(Cl)cc3)CC2)CC1 |  | inactive: 11%
O=C(CCc1nnc(CCCc2ccccc2)o1)NC(C1CC1)C1CC1 |  | inactive: 1.15%
CCn1c2ccccc2c2cc(NC(=O)CN(C)CC(=O)Nc3ccc(N4CCOCC4)cc3)ccc21 | inconclusive [inhibitor, single point] | 
CC1=NN(C(=O)c2csc(C)c2C)C(O)(C(F)(F)F)C1 (configuration not stated) |  | inactive: 4.09%
Cc1ccc(S(=O)(=O)N(C)C)cc1NC(=S)N(CCC#N)Cc1cccnc1 | inconclusive [inhibitor, partial curve] | 
COC(=O)c1ccccc1NC(=S)NC(NC(=O)c1ccco1)C(Cl)(Cl)Cl (configuration not stated) | inconclusive [inhibitor, single point] | 
CCOC(=O)c1c(NC(=O)Nc2ccc(F)cc2)sc2c1CCN(C)C2 |  | inactive: -6.45%
CCc1ccc(NC(=O)Cc2c(C(=O)O)n(C)c3ccccc23)cc1 |  | inactive: -0.81%
C=C(C)CSc1nc2c(c(=O)[nH]c(=O)n2C)n1CCC(C)C | inconclusive [inhibitor, partial curve] | 
O=C(Cn1c2[n+](c3ccc(C(F)(F)F)cc31)CCCCC2)Nc1ccccc1 |  | inactive: 6.99%
COC(=O)C1C(c2ccc(OC)cc2)Nc2nnc(C(F)(F)F)n2C1(C)O (configuration not stated) | inconclusive [inhibitor, single point] | 
CC(=O)C1=C(C)NC(SCC(=O)Nc2nc3ccccc3s2)=C(C#N)C1c1ccc(Cl)cc1 (configuration not stated) | inconclusive [inhibitor, partial curve, poor fit] | 
O=C(CCl)NNC(=O)c1c(O)c2ccccc2[nH]c1=O | inconclusive [inhibitor, single point] | 
CC(=O)c1cccc(-n2nnnc2SCC(=O)Nc2ccccc2N2CCCCC2)c1 |  | inactive: 1.79%
O=S(=O)(c1ccccc1F)N(Cc1ccco1)Cc1nnc(-c2ccccc2Br)o1 | active: 14.1 µM | 
Cn1cccc1C(=O)N1CCC2(CC1)CCN(c1ccccn1)CC2 | inconclusive [inhibitor, single point] | 
COc1ccc(-c2nn(-c3ccccc3)cc2/C=C/C(=O)N2CCN(c3ccccn3)CC2)cc1 | inconclusive [inhibitor, single point] | 
CN1CCN(C(=O)C2C3C=CC(C3)C2C(=O)O)CC1 (configuration not stated) |  | inactive: 14.6%

SMILES | Potency | activity, negative = inhibition
O=C(Cc1c[nH]c2ccccc12)NC1(C(=O)NC2CCCC2)CCCCC1 |  | inactive: 5.15%
Cn1cccc1Cc1nnc(SCC(=O)Nc2cccc(Cl)c2)n1-c1ccc(F)cc1 |  | inactive: -6.42%
O=S(=O)(NC1CCCC1)c1ccccc1Cl | inconclusive [inhibitor, partial curve] | 
NC(=O)C1CCN(c2ncccc2[N+](=O)[O-])CC1 |  | inactive: -3.16%
CCc1ccc(NC(=O)CSc2nnc(Cc3cccn3C)n2-c2ccc(F)cc2)cc1 | inconclusive [inhibitor, single point] | 
O=c1c(-c2ccccc2)nc(-c2ccccc2)cn1O | inconclusive [inhibitor, partial curve] | 
O=C(OCC(=O)N1CCN(c2ccccc2)CC1)c1ccc2ccccc2n1 | active: 8.91 µM | 
COc1ccc(-c2nc3ncnn3cc2C)cc1F | inconclusive [inhibitor, partial curve] | 
COc1ccc(NC(=O)CSc2nnc(-c3ccccn3)n2N)cc1 |  | inactive: 3.55%
COc1ccc(CCC(=O)NC(C)C)cc1 |  | inactive: 22.7%
COc1cccc(N=C2CC(C)(C)CC(=O)/C2=C(/O)c2ccccc2)c1 | inconclusive [inhibitor, partial curve] | 
NCCCc1ccc2oc3ccccc3c2c1 |  | inactive: 11.4% [at 13.5 µM]
CC(=O)Nc1ccc(NC(=O)CSc2ccc(C)cc2)cc1 |  | inactive: 1.66%
O=C1c2ccc(Oc3cccc([N+](=O)[O-])c3)cc2C(=O)N1c1ccccn1 | inconclusive [inhibitor, full curve] | 
N#Cc1nc(COc2ccccc2)oc1N1CCCC1 | inconclusive [inhibitor, single point] | 
COc1ccc(C/C(C)=N/NC(=S)Nc2ccc(C)c(C)c2)cc1 | active: 23.8 µM | 
COc1ccc(NC(=O)Nc2ccc(C(=O)N3CCOCC3)cc2)c(OC)c1 |  | inactive: 12.2%
Cc1ccc(S(=O)(=O)N(C)CC(=O)OCC(=O)N2CCN(c3ccccc3)CC2)cc1 | inconclusive [inhibitor, single point] | 
C/C(=N\NC(=O)CSc1nc2ccccc2s1)c1ccco1 | active: 2.82 µM | 
Cc1ccc(S(=O)(=O)CC(O)COc2ccc(F)cc2Cl)cc1 (configuration not stated) | inconclusive [inhibitor, single point] | 
CCC(=O)N/N=C(\C)CC(=O)Nc1ccc2c(c1)OCCO2 | inconclusive [inhibitor, single point] | 
COc1ccc(-c2nnc(SCC(=O)Nc3nncs3)o2)cc1 |  | inactive: 4.85%
O=C1NC(=O)c2cc([N+](=O)[O-])ccc21 |  | inactive: 1.62%
Cc1nc(NC2CCCCC2)c2nc(-c3ccccc3)n(CCCN3CCCCC3C)c2n1 (configuration not stated) | inconclusive [inhibitor, partial curve] | 
C/C=C/c1ccc(OCCCCn2cncn2)c(OC)c1 | inconclusive [inhibitor, single point] | 
